Experimental data: the RNAGym collection of RNA variant scans (doi:10.7554/elife.90254)
Read counts are not given, so values of variants with three or more changes are uncertain.

B1: LINE1-full (parent)
chain: UACGUAGGUGGUUUUCCCCUGAUAGUGCUAAGGGGGCCUGGAAGUUUGGACUGGGCAGAGCUCAACACAGCGUGGCAAAGUGGCUGUGGCUAGACUGCCUCUCUGGAUUCCUCGUCACUCAGCAGGGCAUCUCUGAGAGAAAUGCC

Variants of: B1
Assay: self-cleavage, relative activity (ratio to wild type); higher = more cleavage; in vitro, sequencing; the parent is a self-cleaving ribozyme

Row | Variant | self-cleavage
1 | U9C U52C A124G A136G | 1.93
2 | A22G G72A U85C | 0
3 | U9A U14A A65U A77G | 0.56
4 | U20A U119C A140G | 1.63
5 | U9A A22G A78G | 1.05
6 | U14C A69G U87C | 0.34
7 | U1C U14C C84U | 0.12
8 | U20A C113U A129G | 1.1
9 | U13C U81A U87A A117U | 0.17
10 | U12A U23C A57G U96C | 0.84
11 | A59G U108A G127A | 0.12
12 | U12C A31G A77U | 0.74
13 | A42U A57U U100C U143A | 0.1
14 | G58U U62A U100C A117G U134C | 0.05
15 | A50G A78G A121U U134A A136G | 0.47
16 | G4A U14C U73C | 1.31
17 | C71U U81A U91A A138G | 0.43
18 | U46A C71U C84U U87C U102C U115C | 0.03
19 | G35A A59C A94U U112G | 0.17
20 | U13C C68U A78G | 0.03
21 | U52A G97U C145G | 0.13
22 | U87A A124G A142G U143A | 0.11
23 | U20A A43G U143A | 1.03
24 | A43G U52C A140G | 0

Row | Variant | self-cleavage
25 | G11A U47C U132C | 2.04
26 | A77U U87C U100C | 0.19
27 | A31G A79C U130A | 1.72
28 | U12G C16A A77U U96C | 0.19
29 | G33A C95U A121U A136G | 0.24
30 | U5C C84U A140G | 0.12
31 | A65G A107G U132A | 0
32 | A43G G72A U132C | 1.3
33 | G32C A43G U87A | 0.07
34 | U47C A65G A129G | 0
35 | A67U U108C U132A | 0.2
36 | A77G U102C U132C A142G | 0.88
37 | A69C A79U A140G | 0
38 | G35A C95U U108C A140G | 0.28
39 | U20A A50G U62C U87A U96C | 0
40 | U62C U108C C145A | 0.07
41 | A22G U26A U85C G89U | 0.13
42 | A92U U132C U134G | 0.5
43 | C17U U45C U143A | 1.23
44 | U15A A67U U85C | 0.15
45 | A59U U85G U112C | 0.1
46 | U23C A121G A142G | 1.34
47 | U9A U13C A42G A141G | 0.84
48 | A50G G53U U115A | 0.62

Row | Variant | self-cleavage
49 | U13C U46C A59G A124G U143C | 0.68
50 | A31G U112C U119A A129U | 0.9
51 | U12C A124U G137A U143C | 1.14
52 | A6C U62C A67G U119A | 0
53 | U20C U52A G86A | 0.08
54 | U5C U12G G40A U81C U96C U134A | 0
55 | U47A C61U U108C | 0.05
56 | A24G G32A U100C U108C A138U | 0.51
57 | U46C A67G C113A | 0.35
58 | G27A U29C A43G A140G | 1.06
59 | U1A U20A A142G G144A | 1.45
60 | A22G A31C U104C C111U | 0.85
61 | A22U G40A C111A | 0.61
62 | U52C A57G G58U | 0.03
63 | U12G A69G U87C G89A | 0.16
64 | G34U U39C U45C G54A U96C A124G | 0
65 | U12C G53A U87C A124G | 0.12
66 | U23A U62C A78G U115C | 0
67 | A78G A124G U134A | 0.37
68 | G7A U62C U104A | 0.03
69 | U47C A69U A79G | 0.07
70 | U46C A64U C66U A78G | 0.04
71 | U39A A42G U52A A136G | 1.6
72 | U13A U104C U143C | 1.31

Row | Variant | self-cleavage
73 | C18A U85A C128U A142G | 0.05
74 | G53A A69U U96C U112C | 0.04
75 | U5C A77G U119A | 1.41
76 | U15C U109C C123U | 1.26
77 | A78G U91C U104C A124U A138G | 0
78 | U14C U15C C38U A78G | 1.35
79 | U12C U15C U26C A79G G122A | 1.53
80 | A2G U14A U20A G105A | 0.68
81 | A65G U96A A140U | 0.08
82 | A43G A67U U115C | 0.22
83 | U20C A124U U134C | 2.03
84 | U1A A79G U134G | 1.31
85 | G35A U47C U102C U104A A140G | 2
86 | U5C U13G A129G | 1.46
87 | U9A U39C U73C A117U U143A | 1.8
88 | U9A U15C U29C A57G G72A | 1.31
89 | A57G A78C C95A U119C | 0.08
90 | C28U A117U U143C | 1.24
91 | A69C U73A A121G A124G A129U | 0.21
92 | U29C A77G A141G | 2.58
93 | U15C G72A U73C A129C | 2.45
94 | G8A U20A A22G A43G U45A C103U | 0.99
95 | U39A A57G A138G A141G A142U | 0.75
96 | U20C A50C C103A | 1.74

Row | Variant | self-cleavage
97 | U1A A117U G127U A140G | 1.2
98 | U39A A69U U87A | 0.01
99 | C37G U46C U104A | 1.2
100 | A43G U108C U143C | 0.81
101 | U9A U12C A124U | 1.14
102 | U5C A6U A65G | 0
103 | U46C A79G U109A A121U | 0.95
104 | C63U U119C A124G | 0.31
105 | U12C A78G U119A A124U A140G | 1.57
106 | U13C U26C U81C C84U U85C | 0.13
107 | C19U U119C A141G | 1.62
108 | A67U U109C C113U | 0.04
109 | U12C U134G A141G | 0.74
110 | U9G U73A U112C | 0.3
111 | U1A A50G C76A | 1.23
112 | A65U U81G A92G U115C | 0.97
113 | U23C A78G G114A | 1.22
114 | A65G U85A A92G U115A | 0
115 | A2U U12C A124U A129G | 1.26
116 | A6G C103A U112A A117U | 0.67
117 | A6G U46A U85A | 0.84
118 | U46A A50G A124U G127C | 1.42
119 | U13C U87A U119G | 0.16
120 | U20G G34U A64U | 0.43

Row | Variant | self-cleavage
121 | U29A A30G U115C | 2.12
122 | U62C C71G U73A U87A A124G U134C | 0.28
123 | U5C A92G U109C A121G U143A | 0
124 | U12G U29C U130C | 0.97
125 | U20C C90U A92G | 0.06
126 | U5A A67U U73A U104C | 0.2
127 | G32U A67G U91C U112A | 0.12
128 | A22U U112C U130C | 0.84
129 | U26C U29A U112A G127A | 0.67
130 | A6G A107G A142G | 1.64
131 | G32U A77G A140G | 1.9
132 | U15A G70A U100C U134A A140G | 0.38
133 | U20C U45A A77U U132C | 2.03
134 | U15C G53A G60A A94G | 0.02
135 | U5C A59G A138U | 0.15
136 | U47C U52A C98G A124G | 0.34
137 | A2G A50G U109C U134A | 0.2
138 | U12G U96A C120A A136G | 0
139 | U12C U15A A67U A129G | 0.08
140 | U12G U14C A57U A67U U100C U112C C113A U143C | 0.28
141 | A69U G75A A79G U102C A142G | 0
142 | U47A U62C U132C A138G | 0
143 | U81G U102C U115A A129U | 1.65
144 | C56G A57G G88U A129G A138G | 0

Row | Variant | self-cleavage
145 | U46C U134C A142G U143A | 2.08
146 | U13C U45C U119A U132G | 0.88
147 | U15A U26C A79G | 0
148 | U14C U26G U91C G114A A124G | 0.84
149 | C19U G44A U52C A59G U104A | 0
150 | U108C A117G U130C | 1.84
151 | U112A A124G U132A | 2.27
152 | U47A U73A U100C U143A | 2.64
153 | G36A U73A A107U | 1.44
154 | A2G U15C U46C C123A | 0.52
155 | U15C U91C G135A | 0.35
156 | A2G A57U U132C | 0
157 | A6G U12C U15C A31U A69U | 0.39
158 | U100C C113U C133A | 2.19
159 | U91C G106U G137A | 0.37
160 | A22G A30G A42U U52A A77U A117G | 0.29
161 | G32A G72A U85C | 0.07
162 | G10A U23C G74A U87A | 0.05
163 | U47A U62C U119A | 0.03
164 | U14C C63U U132C | 0.47
165 | U26C A57G C71U A124G | 0.49
166 | A77G A117G A140G | 2.83
167 | G21A A42G C71U | 0.66
